Results as given in US11618753B2 (priority 2018, dated 2023).

These compounds were tested on MLKL phosphorylation, HT29-L23 human colorectal adenocarcinoma cells (assay: cells). Conditions: read-out: pMLKL HCS Cell Assay (IC50, uM).

**Q.** With `Cc1ncc(-c2cc(C(F)(F)F)c3c(N)ncnn23)cc1C(=O)Nc1ccn(Cc2ccccc2)n1` [Example 1726, 5-(4-amino-5-(trifluoromethyl)pyrrolo[2,1-f][1,2,4]triazin-7-yl)-N-(1-benzyl-1H-pyrazol-3-yl)-2-methylnicotinamide] as the compound, how does the IC50 read?
**A.** 0.0014 µM

**Q.** For `COc1ncc(-c2cc(C(F)(F)F)c3c(N)ncnn23)cc1C(=O)NCC(C)(O)Cc1ccc(F)cc1` (centres unmarked) [Example 1730, 5-(4-amino-5-(trifluoromethyl)pyrrolo[2,1-f][1,2,4]triazin-7-yl)-N-(3-(4-fluorophenyl)-2-hydroxy-2-methylpropyl)-2-methoxynicotinamide], which IC50 is on record?
**A.** 0.02 µM

**Q.** `COc1ncc(-c2cc(C(F)(F)F)c3c(N)ncnn23)cc1C(=O)N1CCCC(C(C)(O)c2ccc(F)cc2)C1` (centres unmarked) [Example 1733, (5-(4-amino-5-(trifluoromethyl)pyrrolo[2,1-f][1,2,4]triazin-7-yl)-2-methoxypyridin-3-yl)(3-(1-(4-fluorophenyl)-1-hydroxyethyl)piperidin-1-yl)methanone] was tested. Which IC50 did it give?
**A.** 0.234 µM

**Q.** `Cc1ncc(-c2cc(C(F)(F)F)c3c(N)ncnn23)cc1C(=O)N1CCCC(C(C)(O)c2ccc(F)cc2)C1` (centres unmarked) [Example 1735, (5-(4-amino-5-(trifluoromethyl)pyrrolo[2,1-f][1,2,4]triazin-7-yl)-2-methylpyridin-3-yl)(3-(1-(4-fluorophenyl)-1-hydroxyethyl)piperidin-1-yl)methanone] was tested. Which IC50 did it give?
**A.** 0.251 µM

**Q.** With `COc1ncc(-c2cc(C(F)(F)F)c3c(N)ncnn23)cc1C(=O)N1CCCC(C)(C(O)c2ccc(F)cc2)C1` (centres unmarked) [Example 1737, (5-(4-amino-5-(trifluoromethyl)pyrrolo[2,1-f][1,2,4]triazin-7-yl)-2-methoxypyridin-3-yl)(3-((4-fluorophenyl)(hydroxy)methyl)-3-methylpiperidin-1-yl)methanone] as the compound, how does the IC50 read?
**A.** 0.036 µM

**Q.** For `Cc1ncc(-c2cc(C(F)(F)F)c3c(N)ncnn23)cc1C(=O)N1CCCC(C)(C(O)c2ccc(F)cc2)C1` (centres unmarked) [Example 1740, (5-(4-amino-5-(trifluoromethyl)pyrrolo[2,1-f][1,2,4]triazin-7-yl)-2-methylpyridin-3-yl)(3-((4-fluorophenyl)(hydroxy)methyl)-3-methylpiperidin-1-yl)methanone], which IC50 is on record?
**A.** 0.033 µM

**Q.** Which IC50 does the source give for `COc1ncc(-c2cc(C(F)(F)F)c3c(N)ncnn23)cc1C(=O)N1CCCC(O)(Cc2ccc(F)cc2)C1` (centres unmarked) [Example 1741, (5-(4-amino-5-(trifluoromethyl)pyrrolo[2,1-f][1,2,4]triazin-7-yl)-2-methoxypyridin-3-yl)(3-(4-fluorobenzyl)-3-hydroxypiperidin-1-yl)methanone] here?
**A.** 0.101 µM

**Q.** With `COc1ncc(-c2cc(C(F)(F)F)c3c(N)ncnn23)cc1C(=O)NCC(C)(O)C(O)c1ccc(F)cc1` (centres unmarked) [Example 1743, 5-(4-amino-5-(trifluoromethyl)pyrrolo[2,1-f][1,2,4]triazin-7-yl)-N-(3-(4-fluorophenyl)-2,3-dihydroxy-2-methylpropyl)-2-methoxynicotinamide] as the compound, how does the IC50 read?
**A.** 0.036 µM

**Q.** With `Cc1ncc(-c2cc(C(F)(F)F)c3c(N)ncnn23)cc1C(=O)NCC(C)(O)CC(C)(C)C` (centres unmarked) [Example 1746, 5-(4-amino-5-(trifluoromethyl)pyrrolo[2,1-f][1,2,4]triazin-7-yl)-N-(2-hydroxy-2,4,4-trimethylpentyl)-2-methylnicotinamide] as the compound, how does the IC50 read?
**A.** 0.074 µM

**Q.** `COc1ncc(-c2cc(C(F)(F)F)c3c(N)ncnn23)cc1C(=O)N1CCCC(O)(C(O)c2ccc(F)cc2)C1` (centres unmarked) [Example 1747, (5-(4-amino-5-(trifluoromethyl)pyrrolo[2,1-f][1,2,4]triazin-7-yl)-2-methoxypyridin-3-yl)(3-((4-fluorophenyl)(hydroxy)methyl)-3-hydroxypiperidin-1-yl)methanone] was tested. Which IC50 did it give?
**A.** 0.274 µM

**Q.** How did the IC50 turn out when `Cc1ncc(-c2cc(C(F)(F)F)c3c(N)ncnn23)cc1C(=O)N1CC(O)CC(O)(Cc2ccc(F)cc2)C1` (centres unmarked) [Example 1750, (5-(4-amino-5-(trifluoromethyl)pyrrolo[2,1-f][1,2,4]triazin-7-yl)-2-methylpyridin-3-yl)(3-(4-fluorobenzyl)-3,5-dihydroxypiperidin-1-yl)methanone] was run?
**A.** 0.194 µM

**Q.** `COC(c1ccc(F)cc1)C(C)(O)CNC(=O)c1cc(-c2cc(C(F)(F)F)c3c(N)ncnn23)cnc1C` (centres unmarked) [Example 1752, 5-(4-amino-5-(trifluoromethyl)pyrrolo[2,1-f][1,2,4]triazin-7-yl)-N-(3-(4-fluorophenyl)-2-hydroxy-3-methoxy-2-methylpropyl)-2-methylnicotinamide] was tested. Which IC50 did it give?
**A.** 0.0027 µM

**Q.** How did the IC50 turn out when `COC(C(C)C(F)(F)F)C(C)(O)CNC(=O)c1cc(-c2cc(C(F)(F)F)c3c(N)ncnn23)cnc1C` (centres unmarked) [Example 1755, 5-(4-amino-5-(trifluoromethyl)pyrrolo[2,1-f][1,2,4]triazin-7-yl)-2-methyl-N-(5,5,5-trifluoro-2-hydroxy-3-methoxy-2,4-dimethylpentyl)nicotinamide] was run?
**A.** 0.197 µM

**Q.** How did the IC50 turn out when `Cc1ncc(-c2cc(C(F)(F)F)c3c(N)ncnn23)cc1C(=O)NCC(C)(O)C(=O)c1ccc(F)cc1` (centres unmarked) [Example 1756, 5-(4-amino-5-(trifluoromethyl)pyrrolo[2,1-f][1,2,4]triazin-7-yl)-N-(3-(4-fluorophenyl)-2-hydroxy-2-methyl-3-oxopropyl)-2-methylnicotinamide] was run?
**A.** 0.0032 µM

**Q.** With `Cc1ncc(-c2cc(C(F)(F)F)c3c(N)ncnn23)cc1C(=O)NCC(C)(O)C(O)c1cccc(F)c1` (centres unmarked) [Example 1758, 5-(4-amino-5-(trifluoromethyl)pyrrolo[2,1-f][1,2,4]triazin-7-yl)-N-(3-(3-fluorophenyl)-2,3-dihydroxy-2-methylpropyl)-2-methylnicotinamide] as the compound, how does the IC50 read?
**A.** 0.018 µM

**Q.** For `Cc1ncc(-c2cc(C(F)(F)F)c3c(N)ncnn23)cc1C(=O)NCC(C)(O)C(OC(F)F)c1ccc(F)cc1` (centres unmarked) [Example 1763, 5-(4-amino-5-(trifluoromethyl)pyrrolo[2,1-f][1,2,4]triazin-7-yl)-N-(3-(difluoromethoxy)-3-(4-fluorophenyl)-2-hydroxy-2-methylpropyl)-2-methylnicotinamide], which IC50 is on record?
**A.** 0.0037 µM

**Q.** With `COc1ncc(-c2cc(C(F)(F)F)c3c(N)ncnn23)cc1NC(=O)CCC(O)c1ccc(Cl)cc1` (centres unmarked) [Example 1766, N-(5-(4-amino-5-(trifluoromethyl)pyrrolo[2,1-f][1,2,4]triazin-7-yl)-2-methoxypyridin-3-yl)-4-(4-chlorophenyl)-4-hydroxybutanamide] as the compound, how does the IC50 read?
**A.** 0.375 µM

**Q.** For `COc1ncc(-c2cc(C(F)(F)F)c3c(N)ncnn23)cc1C(=O)NCCC(O)CC(C)C` (centres unmarked) [Example 1767, 5-(4-amino-5-(trifluoromethyl)pyrrolo[2,1-f][1,2,4]triazin-7-yl)-N-(3-hydroxy-5-methylhexyl)-2-methoxynicotinamide], which IC50 is on record?
**A.** 0.047 µM

**Q.** `COc1ncc(-c2cc(C(F)(F)F)c3c(N)ncnn23)cc1C(=O)NCC(O)C(O)c1ccccc1` (centres unmarked) [Example 1768, 5-(4-amino-5-(trifluoromethyl)pyrrolo[2,1-f][1,2,4]triazin-7-yl)-N-(2,3-dihydroxy-3-phenylpropyl)-2-methoxynicotinamide] was tested. Which IC50 did it give?
**A.** 0.034 µM

**Q.** Which IC50 does the source give for `Cc1ncc(-c2cc(C(F)(F)F)c3c(N)ncnn23)cc1C(=O)NCC(O)C(O)c1ccccc1` (centres unmarked) [Example 1769, 5-(4-amino-5-(trifluoromethyl)pyrrolo[2,1-f][1,2,4]triazin-7-yl)-N-(2,3-dihydroxy-3-phenylpropyl)-2-methylnicotinamide] here?
**A.** 0.0076 µM
